Common to all, as to test: glycan array binding signal (z-score within array); higher = stronger binding
Holding throughout (conditions): glycan notation: IUPAC condensed, linker removed

Assay [1] has as its target Fuc(a1-2)Gal. The method, boiled down:
(§1)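 Columns mapping to the same glycan were averaged after glycan names were converted to IUPAC-condensed notation. The data come from 3228 arrays in the Consortium for Functional Glycomics database, limited to those with an available protein sequence. Binding is reported as a within-array Z-score averaged across arrays of one protein sequence and across linkers.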

Assay [2] concerns the target Fuc(a1-2)Gal(b1-3)GalNAc. The procedure, abridged: as §1
Assay [3] deals with Fuc(a1-2)Gal(b1-3)GalNAc(a1-3)[Fuc(a1-2)]Gal(b1-4)Glc. The method, boiled down:
as §1

For assay [4], the target named is Fuc(a1-2)Gal(b1-3)GalNAc(a1-3)[Fuc(a1-2)]Gal(b1-4)GlcNAc. The procedure, abridged: as §1
The target of assay [5] is Fuc(a1-2)Gal(b1-3)GalNAc(b1-3)Gal. The method, boiled down:
as §1

The target of assay [6] is Fuc(a1-2)Gal(b1-3)GalNAc(b1-3)Gal(a1-4)Gal(b1-4)Glc. The procedure, abridged: as §1
The target of assay [7] is Fuc(a1-2)Gal(b1-3)GalNAc(b1-4)[Neu5Ac(a2-3)]Gal(b1-4)Glc. The method, boiled down: as §1
Assay [8] addresses Fuc(a1-2)Gal(b1-3)GlcNAc. The procedure, abridged: as §1
In assay [9] the target is Fuc(a1-2)Gal(b1-3)GlcNAc(b1-2)Man(a1-3)[Fuc(a1-2)Gal(b1-3)GlcNAc(b1-2)Man(a1-6)]Man(b1-4)GlcNAc(b1-4)GlcNAc. The procedure, abridged: as §1
For assay [10], the target named is Fuc(a1-2)Gal(b1-3)GlcNAc(b1-2)Man(a1-3)[Fuc(a1-2)Gal(b1-3)GlcNAc(b1-2)Man(a1-6)]Man(b1-4)GlcNAc(b1-4)[Fuc(a1-6)]GlcNAc. The method, boiled down: as §1
The target in assay [11] is Fuc(a1-2)Gal(b1-3)GlcNAc(b1-3)Gal(b1-4)Glc. The method, boiled down: as §1
The target of assay [12] is Fuc(a1-2)Gal(b1-3)GlcNAc(b1-3)GalNAc. The procedure, abridged:
as §1

Assay [13] addresses Fuc(a1-2)Gal(b1-3)GlcNAc(b1-3)[Fuc(a1-3)[Gal(b1-4)]GlcNAc(b1-6)]Gal(b1-4)Glc. The procedure, abridged: as §1
Assay [14] deals with Fuc(a1-2)Gal(b1-3)GlcNAc(b1-3)[Gal(b1-4)GlcNAc(b1-6)]Gal(b1-4)Glc. The procedure, abridged: as §1
Assay [15] concerns the target Fuc(a1-2)Gal(b1-3)[Fuc(a1-4)]GlcNAc. The method, boiled down:
as §1

Assay [16] deals with Fuc(a1-2)Gal(b1-3)[Fuc(a1-4)]GlcNAc(b1-2)Man(a1-3)[Fuc(a1-2)Gal(b1-3)[Fuc(a1-4)]GlcNAc(b1-2)Man(a1-6)]Man(b1-4)GlcNAc(b1-4)GlcNAc. The procedure, abridged:
as §1

The target in assay [17] is Fuc(a1-2)Gal(b1-3)[Fuc(a1-4)]GlcNAc(b1-3)[Fuc(a1-3)[Gal(b1-4)]GlcNAc(b1-6)]Gal(b1-4)Glc. The procedure, abridged: as §1
Assay [18] concerns the target Fuc(a1-2)Gal(b1-3)[Fuc(a1-4)]GlcNAc(b1-3)[Gal(b1-4)GlcNAc(b1-6)]Gal(b1-4)Glc. The method, boiled down:
as §1

For assay [19], the target named is Fuc(a1-2)Gal(b1-4)Glc. The method, boiled down: as §1
For assay [20], the target named is Fuc(a1-2)Gal(b1-4)Glc6S. The method, boiled down: as §1
In assay [21] the target is Fuc(a1-2)Gal(b1-4)GlcNAc. The method, boiled down: as §1
Assay [22] concerns the target Fuc(a1-2)Gal(b1-4)GlcNAc(b1-2)Man(a1-3)[Fuc(a1-2)Gal(b1-4)GlcNAc(b1-2)Man(a1-6)]Man(b1-4)GlcNAc(b1-4)GlcNAc. The method, boiled down:
as §1

This is one part of the list.

B1: Gal 4 (Canis lupus) (protein)
chain: MAYVPAPGYQPTYNPTLPYNKPIPGGLSVGMSVYIQGITSEHMRRFCVNFVAGAHPGSDIAFHFNPRFDGWDKVVFNSHLGGKWGSEEKKRSMPFRKGTHFELVFMVLAEHYKVVVNGNPFYEFGHRLPLQLVTHLQVEGDVELQSINFIGGTQPLGQGPGHTQQQPSSLPTMEGPPVFNPPVPFRKRLQGGLTVRRTVIIKGFVPFTSKSFVINFMVESSGDLALHINPRLTEGLVVRNSCLNGSWGSEDRKLSYNPFIPGQFFDLSIRCGMDRFKVYANGQHLFDFSHRLLALQNVDMLEINGDVTLSYIQV
B1: the “glycan array binding signal (z-score)” value was -0.149 in assay [1]; -0.154 in assay [2]; -0.13 in [3]; -0.151 in [4]; -0.153 in assay [5]; -0.147 in assay [6]. In addition, the “glycan array binding signal (z-score)” value in [7] was -0.15; in assay [8], -0.155; in [9] it was -0.129; in assay [10], -0.145; in assay [11], 0.072; in assay [12], -0.154. Besides, the “glycan array binding signal (z-score)” value in [13] is -0.147; in assay [14], -0.144; in [15], -0.153; in [16], -0.126; in [17], -0.157; in assay [18], -0.151. The “glycan array binding signal (z-score)” value was -0.09 in assay [19], 0.071 in assay [20], -0.152 in assay [21] and -0.141 in assay [22].

Values taken from the supplement of paper PMC8728848.
